Where two headings read alike, the source gives them in different places.
Assays:
mice [1] = conditions: intraperitoneal injection in mice, doses of 30, 100 and 300 mg/kg
mice [2] = conditions: intraperitoneal injection in mice, doses of 30, 100 and 300 mg/kg; remark: listed apart in the source
mice [3] = assay: MES screen after intraperitoneal injection in mice; type: in vivo; conditions: doses of 30, 100 and 300 mg/kg

Structure (SMILES)	MES screen 0.5 h: minimum dose whereby bioactivity was demonstrated in half or more of the mice (mice [3]; 0.5 h)	MES screen 4 h: minimum dose whereby bioactivity was demonstrated in half or more of the mice (mice [3]; 4 h)	MES screen: minimum dose whereby bioactivity was demonstrated in half or more of the mice (mice [3]; 0.5 h)	MES screen: minimum dose whereby bioactivity was demonstrated in half or more of the mice (mice [3]; 4 h)	also measured
N#Cc1ccc(Oc2ccc(C=NNC(N)=O)cc2)cc1 [Compound 4j]	30 mg/kg	30 mg/kg	–	–	toxicity screen 0.5 h: minimum dose whereby bioactivity was demonstrated in half or more of the mice (mice [1]; 0.5 h): 300 mg/kg; toxicity screen 4 h: minimum dose whereby bioactivity was demonstrated in half or more of the mice (mice [1]; 4 h): 100 mg/kg; acPTZ screen 0.5 h: minimum dose whereby bioactivity was demonstrated in half or more of the mice (mice [2]; 0.5 h): 30 mg/kg; acPTZ screen 4 h: minimum dose whereby bioactivity was demonstrated in half or more of the mice (mice [2]; 4 h): 30 mg/kg
NC(=O)NN=Cc1cccc(Oc2ccccc2)c1 [Compound 3]	–	300 mg/kg	–	–	–
NC(=O)NN=Cc1ccc(Sc2ccc(F)cc2)cc1 [Compound 16a]	–	–	30 mg/kg	30 mg/kg	toxicity screen: minimum dose whereby bioactivity was demonstrated in half or more of the mice (mice [1]; 0.5 h): 300 mg/kg; toxicity screen: minimum dose whereby bioactivity was demonstrated in half or more of the mice (mice [1]; 4 h): 100 mg/kg; acPTZ screen: minimum dose whereby bioactivity was demonstrated in half or more of the mice (mice [2]; 0.5 h): 30 mg/kg
NC(=O)NN=Cc1ccc(Oc2ccc(F)cc2)cc1 [Compound 4b, 4-(4′-fluorophenoxy)benzaldehyde semicarbazone]	30 mg/kg	100 mg/kg	30 mg/kg	100 mg/kg	–
CCCc1ccc(Oc2ccc(C=NNC(N)=O)cc2)cc1 [Compound 5q]	100 mg/kg	100 mg/kg	–	–	toxicity screen 4 h: minimum dose whereby bioactivity was demonstrated in half or more of the mice (mice [1]; 4 h): 300 mg/kg; acPTZ screen 0.5 h: minimum dose whereby bioactivity was demonstrated in half or more of the mice (mice [2]; 0.5 h): 300 mg/kg
CC(=NNC(N)=O)c1ccccc1Oc1ccc(Cl)cc1 [14c]	–	–	300 mg/kg	300 mg/kg	toxicity screen: minimum dose whereby bioactivity was demonstrated in half or more of the mice (mice [1]; 0.5 h): 300 mg/kg; toxicity screen: minimum dose whereby bioactivity was demonstrated in half or more of the mice (mice [1]; 4 h): 300 mg/kg; acPTZ screen: minimum dose whereby bioactivity was demonstrated in half or more of the mice (mice [2]; 0.5 h): 300 mg/kg; acPTZ screen: minimum dose whereby bioactivity was demonstrated in half or more of the mice (mice [2]; 4 h): 300 mg/kg
CCc1ccc(Oc2ccc(C=NNC(N)=O)cc2)cc1 [Compound 5p]	30 mg/kg	30 mg/kg	–	–	toxicity screen 0.5 h: minimum dose whereby bioactivity was demonstrated in half or more of the mice (mice [1]; 0.5 h): 300 mg/kg; toxicity screen 4 h: minimum dose whereby bioactivity was demonstrated in half or more of the mice (mice [1]; 4 h): 100 mg/kg; acPTZ screen 0.5 h: minimum dose whereby bioactivity was demonstrated in half or more of the mice (mice [2]; 0.5 h): 300 mg/kg
CCC(=NNC(N)=O)c1ccc(Oc2ccc(Cl)cc2)cc1 [Compound 13g]	–	–	30 mg/kg	–	toxicity screen: minimum dose whereby bioactivity was demonstrated in half or more of the mice (mice [1]; 0.5 h): 300 mg/kg; toxicity screen: minimum dose whereby bioactivity was demonstrated in half or more of the mice (mice [1]; 4 h): 100 mg/kg; acPTZ screen: minimum dose whereby bioactivity was demonstrated in half or more of the mice (mice [2]; 0.5 h): 300 mg/kg
NC(=O)NN=Cc1ccc(OC(=O)c2ccccc2)cc1 [15b]	–	–	–	300 mg/kg	–
CC(C)(C)c1ccc(Oc2ccc(C=NNC(N)=O)cc2)cc1 [Compound 5s]	100 mg/kg	30 mg/kg	–	–	toxicity screen 0.5 h: minimum dose whereby bioactivity was demonstrated in half or more of the mice (mice [1]; 0.5 h): 100 mg/kg; toxicity screen 4 h: minimum dose whereby bioactivity was demonstrated in half or more of the mice (mice [1]; 4 h): 100 mg/kg; acPTZ screen 4 h: minimum dose whereby bioactivity was demonstrated in half or more of the mice (mice [2]; 4 h): 100 mg/kg
NC(=O)NN=Cc1ccc(Oc2ccc(F)cc2Br)cc1 [Compound 5m]	100 mg/kg	100 mg/kg	–	–	toxicity screen 0.5 h: minimum dose whereby bioactivity was demonstrated in half or more of the mice (mice [1]; 0.5 h): 300 mg/kg; toxicity screen 4 h: minimum dose whereby bioactivity was demonstrated in half or more of the mice (mice [1]; 4 h): 300 mg/kg; acPTZ screen 0.5 h: minimum dose whereby bioactivity was demonstrated in half or more of the mice (mice [2]; 0.5 h): 300 mg/kg
COc1ccc(Oc2ccc(C=NNC(N)=O)cc2)cc1 [Compound 4h]	100 mg/kg	100 mg/kg	–	–	toxicity screen 4 h: minimum dose whereby bioactivity was demonstrated in half or more of the mice (mice [1]; 4 h): 300 mg/kg
NC(=O)NN=Cc1ccc(Oc2ccc(I)cc2)cc1 [Compound 4e]	30 mg/kg	30 mg/kg	–	–	toxicity screen 0.5 h: minimum dose whereby bioactivity was demonstrated in half or more of the mice (mice [1]; 0.5 h): 300 mg/kg; toxicity screen 4 h: minimum dose whereby bioactivity was demonstrated in half or more of the mice (mice [1]; 4 h): 100 mg/kg; acPTZ screen 0.5 h: minimum dose whereby bioactivity was demonstrated in half or more of the mice (mice [2]; 0.5 h): 100 mg/kg; acPTZ screen 4 h: minimum dose whereby bioactivity was demonstrated in half or more of the mice (mice [2]; 4 h): 300 mg/kg
Cc1cccc(Oc2ccc(C=NNC(N)=O)cc2)c1 [Compound 5o]	30 mg/kg	100 mg/kg	–	–	toxicity screen 0.5 h: minimum dose whereby bioactivity was demonstrated in half or more of the mice (mice [1]; 0.5 h): 100 mg/kg; toxicity screen 4 h: minimum dose whereby bioactivity was demonstrated in half or more of the mice (mice [1]; 4 h): 300 mg/kg
NC(=O)NN=Cc1ccc(Sc2ccc(Br)cc2)cc1 [Compound 16c]	–	–	100 mg/kg	30 mg/kg	toxicity screen: minimum dose whereby bioactivity was demonstrated in half or more of the mice (mice [1]; 4 h): 300 mg/kg; acPTZ screen: minimum dose whereby bioactivity was demonstrated in half or more of the mice (mice [2]; 4 h): 300 mg/kg
CCCC(CCC)C(=O)O [Valproic acid, reference compound]	–	–	–	–	acPTZ screen 0.5 h: minimum dose whereby bioactivity was demonstrated in half or more of the mice (mice [2]; 0.5 h): 300 mg/kg; acPTZ screen: minimum dose whereby bioactivity was demonstrated in half or more of the mice (mice [2]; 0.5 h): 300 mg/kg
CCC(=NNC(N)=O)c1ccccc1Oc1ccc(Br)cc1 [14g]	–	–	–	–	toxicity screen: minimum dose whereby bioactivity was demonstrated in half or more of the mice (mice [1]; 4 h): 300 mg/kg

Structure (SMILES)	MES screen 0.5 h: minimum dose whereby bioactivity was demonstrated in half or more of the mice (mice [3]; 0.5 h)	MES screen 4 h: minimum dose whereby bioactivity was demonstrated in half or more of the mice (mice [3]; 4 h)	MES screen: minimum dose whereby bioactivity was demonstrated in half or more of the mice (mice [3]; 0.5 h)	MES screen: minimum dose whereby bioactivity was demonstrated in half or more of the mice (mice [3]; 4 h)	also measured
NC(=O)NN=Cc1ccc(Sc2ccccc2)cc1 [Compound 15a]	–	–	30 mg/kg	30 mg/kg	toxicity screen: minimum dose whereby bioactivity was demonstrated in half or more of the mice (mice [1]; 4 h): 300 mg/kg
NC(=O)N1c2ccccc2C=Cc2ccccc21 [Carbamazepine, reference compound]	30 mg/kg	100 mg/kg	30 mg/kg	100 mg/kg	acPTZ screen 0.5 h: minimum dose whereby bioactivity was demonstrated in half or more of the mice (mice [2]; 0.5 h): 100 mg/kg; acPTZ screen: minimum dose whereby bioactivity was demonstrated in half or more of the mice (mice [2]; 0.5 h): 100 mg/kg; acPTZ screen 4 h: minimum dose whereby bioactivity was demonstrated in half or more of the mice (mice [2]; 4 h): 300 mg/kg; acPTZ screen: minimum dose whereby bioactivity was demonstrated in half or more of the mice (mice [2]; 4 h): 300 mg/kg
CC(C)(C)CC(C)(C)c1ccc(Oc2ccc(C=NNC(N)=O)cc2)cc1 [Compound 5t]	–	–	–	–	toxicity screen 4 h: minimum dose whereby bioactivity was demonstrated in half or more of the mice (mice [1]; 4 h): 300 mg/kg
CCC(=NNC(N)=O)c1ccc(Oc2ccccc2)cc1 [Compound 13e]	–	–	30 mg/kg	100 mg/kg	toxicity screen: minimum dose whereby bioactivity was demonstrated in half or more of the mice (mice [1]; 0.5 h): 100 mg/kg; toxicity screen: minimum dose whereby bioactivity was demonstrated in half or more of the mice (mice [1]; 4 h): 100 mg/kg
Cc1ccc(Oc2ccc(C=NNC(N)=O)cc2)cc1 [Compound 4f]	30 mg/kg	100 mg/kg	–	–	–
NC(=O)NN=Cc1ccc(OC(=O)c2ccc(Cl)cc2)cc1 [15c]	–	–	–	300 mg/kg	–
CCC(=NNC(N)=O)c1ccccc1Oc1ccc(F)cc1 [14e]	–	–	–	–	toxicity screen: minimum dose whereby bioactivity was demonstrated in half or more of the mice (mice [1]; 4 h): 300 mg/kg
CC(=NNC(N)=O)c1ccccc1Oc1ccc(Br)cc1 [14d]	–	–	–	–	toxicity screen: minimum dose whereby bioactivity was demonstrated in half or more of the mice (mice [1]; 0.5 h): 300 mg/kg
CCC(=NNC(N)=O)c1ccccc1Oc1ccc(Cl)cc1 [14f]	–	–	300 mg/kg	300 mg/kg	–
NC(=O)NN=Cc1ccc(Oc2ccc(Br)cc2)cc1 [Compound 4d]	30 mg/kg	30 mg/kg	–	–	toxicity screen 0.5 h: minimum dose whereby bioactivity was demonstrated in half or more of the mice (mice [1]; 0.5 h): 300 mg/kg; toxicity screen 4 h: minimum dose whereby bioactivity was demonstrated in half or more of the mice (mice [1]; 4 h): 30 mg/kg
CC(=NNC(N)=O)c1ccc(Oc2ccccc2)cc1 [Compound 13a]	–	–	30 mg/kg	100 mg/kg	toxicity screen: minimum dose whereby bioactivity was demonstrated in half or more of the mice (mice [1]; 0.5 h): 100 mg/kg; toxicity screen: minimum dose whereby bioactivity was demonstrated in half or more of the mice (mice [1]; 4 h): 100 mg/kg
NC(=O)NN=Cc1ccc(Oc2ccc(Oc3ccccc3)cc2)cc1 [Compound 4i]	–	300 mg/kg	–	–	–
CCCCCCCOc1ccc(Oc2ccc(C=NNC(N)=O)cc2)cc1 [Compound 5v]	–	–	–	–	toxicity screen 0.5 h: minimum dose whereby bioactivity was demonstrated in half or more of the mice (mice [1]; 0.5 h): 300 mg/kg
O=C1NC(=O)C(c2ccccc2)(c2ccccc2)N1 [Phenytoin, reference compound]	30 mg/kg	30 mg/kg	30 mg/kg	30 mg/kg	–
NC(=O)NN=Cc1ccc(OCc2ccccc2)cc1 [15d]	–	–	300 mg/kg	300 mg/kg	acPTZ screen: minimum dose whereby bioactivity was demonstrated in half or more of the mice (mice [2]; 4 h): 100 mg/kg
NC(=O)NN=Cc1ccc(S(=O)(=O)c2ccccc2)cc1 [15e]	–	–	–	300 mg/kg	–
NC(=O)NN=Cc1ccc(Oc2ccccc2)cc1 [Compound 4a]	100 mg/kg	300 mg/kg	–	–	–
